In PubChem BioAssay AID686978 (National Center for Advancing Translational Sciences (NCATS), 2013):
In all, about 420,000 compounds went through this assay and about 64,000 (15%) were called active. The shares of active, inactive and inconclusive entries below differ from those in the screen. The call rests on the fitted dose curve; in most records, active means well fitted inhibition curve with a large enough effect; inconclusive means small, poorly fitted or top-dose-only effect; inactive means flat fitted curve, though single readings scatter. No potency is given beside an inconclusive call; the fits are too rough.

assay: qHTS for Inhibitors of human tyrosyl-DNA phosphodiesterase 1 (TDP1): qHTS in cells in absence of CPT; conditions: DT40 Tdp1-/- hTDP1 cells, no CPT, ATP luminescence, 48 h; activity change, negative = growth inhibition: at 46.2 µM (top of the series) unless noted; further: nearly all actives have a fitted effect of over 55% in size
How it was run: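 Compound effects on proliferation are scored in DT40 Tdp1-/-;hTDP1 cells in the absence of CPT. ATP levels (CellTiter-Glo luminescence) are recorded after a ≥48 hr, 37 °C incubation.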
On the % scale 0 is the no-effect control and ±100 the full control effect; potency means the concentration at half of the fitted maximal effect; tags describe the fitted curve by direction and shape.

Row | SMILES | Potency | activity change, negative = growth inhibition
1 | COc1cc(/C=C2/C(=O)NN(c3cccc(Cl)c3)C2=O)cc(OC)c1O | inactive | –
2 | CCOC(=O)C(C)N1C(=O)S/C(=C/c2ccc3c(c2)n(C)c(=O)n3C)C1=O (stereo unspecified) | inconclusive [inhibitor, single point] | –
3 | CCOC(=O)CCNC(=O)N1CCCC(N(C)CCc2ccc(OC)c(OC)c2)C1 (stereo unspecified) | inactive | –
4 | O=C(Cn1c(=O)oc2cc(S(=O)(=O)N3CCCCC3)ccc21)N1CCc2ccccc2C1 | – | inconclusive: -31.5% [inhibitor]
5 | O=C(Cn1cc(C(=O)c2ccco2)c2ccccc21)Nc1ccccc1F | inconclusive [inhibitor, partial curve] | –
6 | CCc1ccc(CN(C)C(=O)C2CCC(=O)N(Cc3cccc(OC)c3)C2)nc1 (stereo unspecified) | inconclusive [inhibitor, single point] | –
7 | CCOc1ccc(N/C=C\C(=O)c2ccc3c(c2)OCO3)cc1 | inconclusive [inhibitor, full curve] | –
8 | CCOc1cc(C2NC(=O)CCC2[N+](=O)[O-])cc(Br)c1OC (stereo unspecified) | inconclusive [inhibitor, single point] | –
9 | Cc1nn(Cc2ccc(F)cc2)c(C)c1NC(=O)c1noc2c1CCCCC2 | inconclusive [inhibitor, single point] | –
10 | O=C(c1ccccc1)c1cccc(NC(=O)c2ccc(Br)o2)c1 | inconclusive [inhibitor, single point] | –
11 | Nc1nc(Nc2ccc(Cl)cc2)c(NC=O)c(=O)[nH]1 | inactive | –
12 | O=C(NCCc1cccs1)C1CC(c2cccc([N+](=O)[O-])c2)=NO1 (stereo unspecified) | inactive | –
13 | CCOC(=O)c1ccc(NC(=O)Cn2c(=O)n(-c3ccc(C)cc3)c(=O)c3c2cnn3C)cc1 | inconclusive [inhibitor, partial curve] | –
14 | COc1ccc2c(c1)N(C)/C(=C1/SC(=NCc3ccccc3)N(c3ccccc3)C1=O)S2 | inconclusive [inhibitor, partial curve, poor fit] | –
15 | C=CCOc1ccccc1CN1CCCN(C)CC1 | inactive | –
16 | CCCc1cc(=O)[nH]c(SCC(=O)NC2CC2)n1 | inactive | –
17 | COc1ccc(S(=O)(=O)N2CCN(Cc3c[nH]c4ccccc34)CC2)cc1 | inconclusive [inhibitor, partial curve] | –
18 | COc1ccccc1CN1CC(C(=O)NCCn2ccc(C)n2)CCC1=O (stereo unspecified) | inactive | –
19 | O=C(Nc1ccccn1)C(F)(F)C(F)(F)C(F)(F)C(F)(F)C(=O)Nc1ccccn1 | inconclusive [inhibitor, single point] | –
20 | Cc1c(-c2nc(-c3ccc4c(c3)OCO4)no2)nnn1-c1ccc(Br)cc1F | inconclusive [inhibitor, single point] | –
21 | COc1cc(C(C)=O)ccc1OCCN1CCC(Cc2ccccc2)CC1 | inconclusive [inhibitor, partial curve] | –
22 | CCOC(=O)c1cc2sc(C)cc2n1CCCN1C(=O)c2ccccc2C1=O | inconclusive [inhibitor, single point] | –
23 | CC(C)CN(C(=O)c1cccc(S(=O)(=O)N2CCCCC2)c1)C1CCS(=O)(=O)C1 (stereo unspecified) | inactive | –

Row | SMILES | Potency | activity change, negative = growth inhibition
24 | CCOC(=O)C(=O)N(C)c1c(CC)nc2c(OCc3cccc(OC)c3)cccn12 | inactive | –
25 | COCCNc1nc(-c2c(C)noc2C)nc2ccccc12 | inactive | –
26 | O=C(COC(=O)c1nc(Cl)ccc1Cl)NCc1ccccc1 | inactive | –
27 | Cc1ccc(CNC(=O)Cc2c(C)c3cc4c(C)coc4cc3oc2=O)cc1 | inactive | –
28 | COc1cccc(-c2sc3ccc(OC)cc3c2-c2ccc(OCCN3CCOCC3)cc2)c1 | inconclusive [inhibitor, single point] | –
29 | Cc1ccc(-c2csc(Nc3ccc(S(N)(=O)=O)cc3)n2)o1 | inconclusive [inhibitor, partial curve] | –
30 | Cn1c2ccccc2c(=O)c2c(=O)n(C3CCCCC3)c(-c3ccco3)nc21 | inconclusive [inhibitor, single point] | –
31 | COc1ccc(OCC(O)CNC(=O)c2cccs2)cc1 (stereo unspecified) | inactive | –
32 | Cc1noc(C)c1COc1ccccc1C(=O)NCCc1ccc(F)cc1 | inconclusive [inhibitor, single point] | –
33 | CCOC(=O)N1c2ccccc2Sc2ccccc21 | inconclusive [inhibitor, single point] | –
34 | Cc1ccccc1OCCNC(=O)c1ccc2ccccc2n1 | inconclusive [inhibitor, partial curve] | –
35 | CCN1C(=NCCOC)N[C@@H](c2cccc(F)c2)C(C(=O)OC)=C1C | inactive | –
36 | CN(C)c1ccc(/C=C2\CCC/C(=C\c3ccccc3)C2=O)cc1 | inconclusive [inhibitor, single point] | –
37 | CCOC(=O)c1ccc(N2CCN(c3cccc(OC)c3)CC2)c(NC(=O)Nc2ccc(OCC)cc2)c1 | inactive | –
38 | O=C(NC12CC3CC(CC(C3)C1)C2)C12CC3CC(C1)CC(n1cnc(Cl)n1)(C3)C2 | active: 16.4 µM | –
39 | Cc1noc(NC(=O)c2cccc(Cl)c2Cl)c1C#N | inconclusive [inhibitor, single point] | –
40 | CCOC(=O)c1c(NC(=O)c2nc(SCC)ncc2Cl)sc(C(C)=O)c1C | inactive | –
41 | COc1cc(OC)cc(C(=O)NC(C(=O)NCCN(C)C)C23CC4CC(CC(C4)C2)C3)c1 (stereo unspecified) | inconclusive [inhibitor, single point] | –
42 | CC1CCCN(C(=O)CSCC(=O)N=c2sc3ccccc3n2C)C1 (stereo unspecified) | inconclusive [inhibitor, single point] | –
43 | C=CCn1c(CCNC(=O)c2ccc(Cl)c(Cl)c2)nnc1SCCOc1ccc(OC)cc1 | active: 25.9 µM | –
44 | CC(C)c1nc2oc3c(=O)[nH]cnc3c2c2c1COC(C)(C)C2 | inactive | –
45 | CCOC(=O)c1c(NC(=O)CSc2c[nH]c3ccccc23)sc2c1CCC2 | active: 13 µM | –
46 | COc1ccc(C(=O)OCc2cc(=O)n3nc(-c4cccs4)sc3n2)cc1 | inconclusive [inhibitor, partial curve] | –
